We go through one molecule from US20020086014A1 (Bristol-Myers Squibb, published 2002).

In the test the target is T1, mouse B7.1 expressed on LtkmB7.1 cells (mouse, UniProt Q00609 38-306).
T1 construct: whole, on cells; also called murine B7.1; B7.1 on Ltk mB7.1
T1 sequence (looked up): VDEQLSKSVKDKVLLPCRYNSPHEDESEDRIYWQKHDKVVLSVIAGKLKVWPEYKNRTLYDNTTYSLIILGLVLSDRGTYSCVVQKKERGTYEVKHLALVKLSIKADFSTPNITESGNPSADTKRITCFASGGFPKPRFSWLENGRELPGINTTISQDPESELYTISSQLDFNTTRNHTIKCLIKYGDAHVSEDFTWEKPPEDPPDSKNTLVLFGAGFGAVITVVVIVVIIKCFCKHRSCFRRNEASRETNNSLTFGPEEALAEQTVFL
In words: binding of HPLC fractions to LtkmB7.1 cells.

B1: Purified recombinant CTLA-4 extracellular fragment (receptor)
chain: not shown
notes: extracellular domain; Made by Factor Xa cleavage after the C-terminus of the extracellular domain; also called Extracellular CTLA-4 fragment; CTLA-4 fragment
Regarding B1, the binding result is given as “binds”.
